From patent US12528864 (GlaxoSmithKline, dated 2026)

How the values were obtained:
[1] = target: T1, human CD96v2 expressed on cells (CHO cells; transiently transfected HEK cells) (human, UniProt P40200-2 22-569); experiment: flow cytometry on CHO cells expressing human CD96v2
T1 construct: whole, on cells; the cell is named under assay; also called CHO-huCD96; hCD96v2
T1 sequence (looked up): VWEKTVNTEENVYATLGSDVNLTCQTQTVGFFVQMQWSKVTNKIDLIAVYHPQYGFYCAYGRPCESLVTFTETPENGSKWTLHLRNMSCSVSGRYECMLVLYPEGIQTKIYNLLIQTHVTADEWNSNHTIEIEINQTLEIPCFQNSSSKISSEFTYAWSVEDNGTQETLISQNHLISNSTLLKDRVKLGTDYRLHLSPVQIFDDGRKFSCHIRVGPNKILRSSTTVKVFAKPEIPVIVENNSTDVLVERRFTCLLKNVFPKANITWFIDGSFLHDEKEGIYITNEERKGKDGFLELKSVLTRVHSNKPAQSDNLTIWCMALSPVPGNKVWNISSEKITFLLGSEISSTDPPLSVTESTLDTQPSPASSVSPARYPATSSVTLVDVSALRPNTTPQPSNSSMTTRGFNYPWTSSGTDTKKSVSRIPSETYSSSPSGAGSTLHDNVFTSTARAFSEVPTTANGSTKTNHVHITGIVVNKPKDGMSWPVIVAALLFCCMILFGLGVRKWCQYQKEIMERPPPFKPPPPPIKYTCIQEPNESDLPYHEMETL

[2] = target: T2, cynomolgus monkey CD96v2 expressed on cells (CHO cells; transiently transfected HEK cells) (cynomolgus monkey, UniProt A0A2K5TWV6 22-569); experiment: flow cytometry on CHO cells expressing cynomolgus CD96v2
T2 construct: the cell is named under assay; also called CHO-cyCD96; Cyno CD96v2
T2 sequence: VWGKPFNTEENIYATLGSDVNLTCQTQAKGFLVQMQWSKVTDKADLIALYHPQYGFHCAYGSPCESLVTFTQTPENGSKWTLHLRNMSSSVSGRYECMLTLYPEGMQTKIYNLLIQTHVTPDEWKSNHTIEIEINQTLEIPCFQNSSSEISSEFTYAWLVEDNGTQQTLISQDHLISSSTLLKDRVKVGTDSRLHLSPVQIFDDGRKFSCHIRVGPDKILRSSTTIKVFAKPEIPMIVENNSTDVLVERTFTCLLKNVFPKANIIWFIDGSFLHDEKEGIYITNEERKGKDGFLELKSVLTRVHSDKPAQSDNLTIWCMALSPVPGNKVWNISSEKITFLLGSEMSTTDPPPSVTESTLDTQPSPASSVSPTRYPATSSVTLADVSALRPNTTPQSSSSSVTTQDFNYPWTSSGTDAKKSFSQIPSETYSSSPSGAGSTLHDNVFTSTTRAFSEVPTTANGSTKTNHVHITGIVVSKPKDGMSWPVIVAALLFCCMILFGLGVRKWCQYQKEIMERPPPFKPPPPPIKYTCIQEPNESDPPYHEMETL

[3] = target: T1, human CD96v2 expressed on cells (CHO …); experiment: flow cytometry, inhibition of human CD155-Fc-AF647 binding to CHO cells expressing human CD96v2; competitor CD155-Fc

EC50 [1]: 0.06 nM | EC50 [2]: 0.03 nM | IC50 [3]: 0.76 nM
B1: 42Y073-86F04-23 (antibody)
heavy: QVQLVQSGAEVKKPGSSVKVSCKASGGTFSGYPISWVRQAPGQGLEWMGGIIPIMGTARYAQKFQGRVTITADESTSTAYMELSSLRSEDTAVYYCARLLGESGMDVWGQGTTVTVSS[letters of human IgG1 constant region omitted]
light: DIQMTQSPSSLSASVGDRVTITCRASQSISSYLNWYQQKPGKAPKLLIYAASSLQSGVPSRFSGSGSGTDFTLTISSLQPEDFATYYCQQPYFSPPTFGGGTKVEIKRTVAAPSVFIFPPSDEQLKSGTASVVCLLNNFYPREAKVQWKVDNALQSGNSQESVTEQDSKDSTYSLSSTLTLSKADYEKHKVYACEVTHQGLSSPVTKSFNRGEC
